In PubChem BioAssay AID1347073 (National Center for Advancing Translational Sciences (NCATS), 2019):
The whole screen tested about 45,000 compounds, of which about 200 (0.44%) were called active. Roughly 7% stayed inconclusive and do not appear here. Calls come from the whole dose curve; as a rule, active = well fitted activation curve with a large enough effect; inconclusive = small, poorly fitted or top-dose-only effect; inactive = no such curve, though single readings can be large or run the other way. This is one part of the list.

assay: qHTS of TDP-43 Inhibitors: NCGC Sytravon Library Screen; details: yeast TDP-43 toxicity rescue, BacTiter-Glo growth, 24 h; series mostly up to 46.1 µM; growth rescue (activation): at the top concentration; note: 0% is about no effect; nearly all actives have a fitted effect of over 55% in size
In short: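 TDP-43-expressing yeast, pregrown in raffinose, seeded at OD600 0.02 in galactose medium with compound for 24 hr at 30 deg C. Growth read by BacTiter-Glo luminescence, so rescue of toxicity appears as activation.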

Structure (SMILES) | growth rescue (activation)
O=C(c1ccccc1)N(Nc1ccccc1)c1ccccc1 | inactive: 17.3%
COc1ccc(/C=N/N=C2\SC(CC(=O)O)C(=O)N2c2ccccc2)cc1 (stereo not given) | inactive: 15.3%
COc1ccc(CN(CC(=O)NCc2ccc(F)cc2)C(=O)CCC(=O)Nc2nccs2)cc1 | inactive: -15.7%
O=C(CCc1nnc(CCCc2ccccc2)o1)NCCN1CCOC1=O | inactive: 1.98%
CCCCc1ccc(NC(=S)NN2CCOCC2)cc1 | inactive: 24.1%
OCCNc1ncnc2c1ncn2[C@H]1CN(Cc2ccncc2)C[C@@H](CO)O1 | inactive: 5.14%
O=C(N/C(=C/c1ccc(Br)cc1)C(=O)N1CCCC1)c1cccs1 | inactive: 10.5%
Cc1ccc(NC(=O)C2C3/C=C\CCCCC32)cc1 (stereo not given) | inactive: 4.61%
c1ccc(C2=Nn3c(nnc3-c3ccncc3)SC2)cc1 | inactive: 19.4%
CC(Oc1ccccc1)C(=O)Nc1ccc(S(=O)(=O)N2CCCC2)cc1 (stereo not given) | inactive: 9.31%
Cc1cccc2cc(C#N)c(SCc3nnc(-c4ccccc4[N+](=O)[O-])o3)nc12 | inactive: -2.4%
CC1(Cc2ccc(C(F)(F)F)nc2)C(=O)Nc2cc(-c3ccccc3Cl)ccc21 (stereo not given) | inactive: -3.08%
CC1(C)CC(=O)C(C(=S)Nc2ccc(F)cc2)=C(NCCN2CCOCC2)C1 | inactive: 0.0006%
O=C(COC(=O)Cc1ccccc1F)NCc1ccc(Cl)cc1 | inactive: 14.7%
CCOc1ccc(NS(=O)(=O)c2cc(C)c(C)cc2C)cc1 | inactive: 24.2%
CCCN(CC(=O)Nc1ccc(NC(C)=O)cc1)CC(=O)Nc1ccc(F)c(F)c1F | inactive: 6.28%
O=C(COC(=O)Cc1ccsc1)Nc1ccccc1 | inactive: 13.1%
CCOC(=O)c1ccccc1NC(=S)N1CCN(C(=O)c2ccco2)CC1 | inactive: 22.1%
COC(=O)[C@H](Cc1ccccc1)NC(=O)N1CCCCC1 | inactive: 8.03%
O=C(Nc1ccc(F)c([N+](=O)[O-])c1)C1CC(=O)N(Cc2ccccc2)C1 (stereo not given) | inactive: 3.11%
COc1ccc(OC(C)C(=O)NCCc2nc3ccccc3[nH]2)cc1 (stereo not given) | inactive: 8.52%
COc1ccc(S(=O)(=O)N2CCNCC2)cc1 | inactive: 9.56%
Cc1ccc(-c2ccc(/C=N/NC(=O)CN3CCOCC3)o2)cc1[N+](=O)[O-] | inactive: 14.8%
CCN1CCN(C(=O)CN2C(=O)COc3ccc(C)cc32)CC1 | inactive: -7.78%
O=C(COC(=O)c1ccc(Cl)nc1)NCCc1ccc(Cl)cc1 | inactive: 12.6%
CC(=O)NC(c1cccc(F)c1)c1nc(/C=C/c2ccccc2)cs1 (stereo not given) | inactive: -5.64%
OC1(c2cccc(C(F)(F)F)c2)CCN(Cc2nnnn2Cc2ccccc2)CC1 | inactive: 0.872%
CCOc1nc(-c2ccccc2)ccc1-c1noc(COc2ccccc2)n1 | inactive: 24.6%
COc1ccc(C2=NN(C(=O)CSc3nnc(C)n3C)C(c3ccco3)C2)cc1 (stereo not given) | inactive: 9.53%
COc1cc(CCC(=O)OCC(=O)NC(=O)c2ccc(Cl)cc2)cc(OC)c1OC | inactive: 15.5%
